{
  "source": "PubChem BioAssay AID504706",
  "about": "(National Center for Advancing Translational Sciences (NCATS), 2011)",
  "note": "In all, about 320,000 compounds went through this assay and about 200 (0.062%) were called active. Inconclusive results, whose numbers are uncertain, are shown with a selection of clear calls. Calls come from the whole dose curve; as a rule, active = well fitted activation curve with a large enough effect; inconclusive = small, poorly fitted or top-dose-only effect; inactive = no such curve, though single readings can be large or run the other way. No potency is given beside an inconclusive call; the fits are too rough. Potency is the fitted concentration of half-maximal effect; tags give direction and shape of the fitted curve.",
  "data": [
    {"experiment": "qHTS assay for re-activators of p53 using a Luc reporter; note: nearly all actives have a fitted effect of over 45% in size", "settings": "H1299 p53-A138V BP100-luciferase reporter, luminescence, 24 h; series mostly up to 92.2 µM", "method_in_brief": "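H1299 (p53-null), stable ts p53-A138V + BP100-Luc; 1000 cells/well, Opti-MEM/10% FBS; cpd 4 pt, 1:5; 24 h, 37 deg C, 5% CO2; detection reagent 10 min RT; luminescence.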", "values": [
      {"smiles": "COc1cc(OC)cc(C(=O)OCC(=O)NCc2ccc3c(c2)OCO3)c1", "Potency": "inconclusive [activator, single point]"},
      {"smiles": "Clc1ccc(CNCc2cccs2)cc1Cl", "Potency": "inconclusive [activator, partial curve, poor fit]"},
      {"smiles": "COc1ccccc1-c1cc(C(=O)Nc2ccc(F)cc2F)no1", "Potency": "inconclusive [activator, single point]"},
      {"smiles": "COc1ccc(/C(N)=N/OC(=O)CCc2ccccc2)cc1", "Potency": "inconclusive [activator, partial curve, poor fit]"},
      {"smiles": "Fc1cccc(C2NN=C(c3ccccc3)S2)c1", "note": "(stereo not given)", "Potency": "inconclusive [activator, partial curve, poor fit]"},
      {"smiles": "CCOc1ccc(/C=N/NC(=O)c2nnn(-c3nonc3N)c2CN(C)C2CCCCC2)cc1", "Potency": "inactive"},
      {"smiles": "Cc1csc(NC(=O)CSc2ncnc3ccccc23)n1", "Potency": "inconclusive [activator, single point]"},
      {"smiles": "COc1ccc(S(=O)(=O)N2CCOc3ccccc32)cc1", "Potency": "inactive"},
      {"smiles": "CCc1nc2oc3ccccc3c(=O)c2c(=O)n1-c1ccccc1", "Potency": "inconclusive [activator, partial curve, poor fit]"},
      {"smiles": "COc1cc(C2C=C(c3cccs3)Nc3ncnn32)cc(OC)c1OC", "note": "(stereo not given)", "Potency": "inactive"},
      {"smiles": "Cc1cc(NC(=O)COc2ccccc2C(N)=O)no1", "Potency": "inconclusive [activator, partial curve, poor fit]"},
      {"smiles": "COc1nc(C)ccc1-c1noc(-c2ccccn2)n1", "Potency": "inconclusive [activator, full curve, poor fit]"},
      {"smiles": "CCCNC(=O)C(=O)Nc1ccc(N(C)C)cc1", "Potency": "inconclusive [activator, full curve, poor fit]"},
      {"smiles": "C=CCn1c(SCC(=O)Nc2c(C)n(C)n(-c3ccccc3)c2=O)nc2ccccc2c1=O", "Potency": "inconclusive [activator, single point]"},
      {"smiles": "CCN(CC(=O)Nc1ccccc1Br)C1CCCCC1", "Potency": "inactive"},
      {"smiles": "COC(=O)c1ccc(NC(=O)c2ccc3c(c2)C(=O)N(Cc2cccnc2)C3=O)cc1", "Potency": "inconclusive [activator, single point]"},
      {"smiles": "Cc1ccnc(N2CCC(C(=O)NCc3ccc4c(c3)OCO4)CC2)n1", "Potency": "inactive"},
      {"smiles": "Cc1ccc(-c2cc(N)n3nc(-c4ccc(C)cc4)cc3n2)cc1", "Potency": "inactive"},
      {"smiles": "COc1ccccc1/C=N/Nc1nccnc1Cl", "Potency": "inconclusive [activator, partial curve, poor fit]"},
      {"smiles": "Cc1ccc2c(c1)sc1nc(=O)n(-c3ccc(Cl)cc3)c(=O)n12", "Potency": "inconclusive [activator, single point]"},
      {"smiles": "Cc1cc(C)n(C(C)CNS(=O)(=O)c2ccccc2)n1", "note": "(stereo not given)", "Potency": "inactive"},
      {"smiles": "O=C(c1ccco1)N1CCN(c2nc3ccccc3n3nnnc23)CC1", "Potency": "inconclusive [activator, partial curve, poor fit]"},
      {"smiles": "CCC(C)NC(=O)CCC(=O)Nc1ccc2nc(N3CCOCC3)cc(C)c2c1", "note": "(stereo not given)", "Potency": "inactive"},
      {"smiles": "CCCCc1ccc(NC(=S)N2CCN(C)CC2)cc1", "Potency": "inconclusive [activator, single point]"},
      {"smiles": "O=C(c1cc(-c2ccc(Cl)cc2Cl)on1)N1CCCCCC1", "Potency": "inconclusive [activator, full curve]"},
      {"smiles": "O=C(NCc1ccccc1)/C(=N\\O)c1ccccc1", "Potency": "inconclusive [activator, single point]"},
      {"smiles": "COc1cccc(/C=N/n2c(=S)n(C)c3ccccc32)c1OC", "Potency": "inactive"},
      {"smiles": "COc1ccc(N/C=C\\C(=O)c2ccc3c(c2)OCO3)cc1OC", "Potency": "inconclusive [activator, full curve, poor fit]"},
      {"smiles": "COc1ccc(-c2nc(C(N)=O)c3[nH]c(=O)n(-c4ccccc4OC)c3n2)c(OC)c1", "Potency": "inactive"},
      {"smiles": "CCOC(=O)[C@H]1[C@H]2COc3ccccc3[C@@H]2N2C(=O)CN(Cc3ccccc3)C(=O)[C@@]12C", "Potency": "inactive"},
      {"smiles": "Fc1ccccc1-c1nc(-c2ccc(Br)o2)no1", "Potency": "inconclusive [activator, full curve, poor fit]"},
      {"smiles": "Cc1ccc(CS(=O)(=O)CCC(=O)O)cc1", "Potency": "inactive"},
      {"smiles": "COc1ccc(-c2cn3cccnc3n2)cc1F", "Potency": "inconclusive [activator, full curve, poor fit]"},
      {"smiles": "CC(=O)c1cc(C#N)c(SCC(=O)OC(C)(C)C)nc1C", "Potency": "inconclusive [activator, single point]"},
      {"smiles": "COc1ccc2c(c1)-c1nc(NC(=O)c3ccco3)sc1CC2", "Potency": "inconclusive [activator, single point]"},
      {"smiles": "Cc1ccc(C(=O)NCCCc2ccccc2)s1", "Potency": "inconclusive [activator, full curve, poor fit]"},
      {"smiles": "CCC1=NN(C(=O)c2ccccc2O)C(O)(c2ccccc2)C1", "note": "(stereo not given)", "Potency": "inactive"},
      {"smiles": "CN(C)CCCN(C(=O)CCSc1ccccc1)c1nc2cc3c(cc2s1)OCO3", "Potency": "inconclusive [activator, single point]"},
      {"smiles": "CCCCCCC1/C(=N/O)CCC1C(=O)OC", "note": "(stereo not given)", "Potency": "inactive"},
      {"smiles": "O=C1CC(c2ccc(S(=O)(=O)N3CCCCC3)cc2)CN1", "note": "(stereo not given)", "Potency": "inactive"},
      {"smiles": "N#C/C(C(=O)Oc1ccccc1)=C1\\C=CC=CN1", "Potency": "inconclusive [activator, partial curve, poor fit]"},
      {"smiles": "COc1cccc(-c2onc3ccc(C(=O)/C=C/N(C)C)cc23)c1", "Potency": "inconclusive [activator, single point]"},
      {"smiles": "CCOC(=O)c1sc(=NC(=O)c2ccccc2)n(C)c1C", "Potency": "inconclusive [activator, partial curve, poor fit]"},
      {"smiles": "Cc1cccc(Nc2ncnc3nc[nH]c23)c1C", "Potency": "inconclusive [activator, single point]"},
      {"smiles": "O=C(O)c1c2c(nc3ccccc13)/C(=C/c1ccc(OC(F)F)cc1)CCC2", "Potency": "inconclusive [activator, partial curve, poor fit]"},
      {"smiles": "Cc1cccc(-n2ncc3c(N4CC(C)CC(C)C4)ncnc32)c1", "note": "(stereo not given)", "Potency": "inconclusive [activator, partial curve, poor fit]"},
      {"smiles": "O=Cc1ccc(OCCN2CCCC2=O)cc1", "Potency": "inconclusive [activator, single point]"},
      {"smiles": "COC(=O)C1=NN(C(=O)c2ccccc2)C(C)(O)C1", "note": "(stereo not given)", "Potency": "inactive"},
      {"smiles": "CCCc1cc(-c2ccc3c(c2)COc2c4ccccc4nn2-3)on1", "Potency": "inconclusive [activator, partial curve, poor fit]"},
      {"smiles": "Cc1c(C(=O)NC(=S)NCC(C)C)oc2ccccc12", "Potency": "inconclusive [activator, full curve, poor fit]"},
      {"smiles": "O=C(Nc1nnc(-c2cccs2)o1)c1cccc(Oc2ccccc2)c1", "Potency": "inconclusive [activator, partial curve, poor fit]"},
      {"smiles": "CSc1nnc(NC(=O)C23CC4CC(CC(C4)C2)C3)s1", "Potency": "inconclusive [activator, partial curve, poor fit]"},
      {"smiles": "Cc1cccc(N2CCN(S(=O)(=O)c3ccc4c(c3)CCCN4C(=O)C3CCC3)CC2)c1C", "Potency": "inactive"},
      {"smiles": "O=C(COC(=O)c1cccc([N+](=O)[O-])c1)Nc1ccc(Cl)cn1", "Potency": "inconclusive [activator, partial curve, poor fit]"},
      {"smiles": "Cc1nc(NC(=O)c2ccc(Br)o2)sc1C", "Potency": "inconclusive [activator, full curve, poor fit]"},
      {"smiles": "CC1=C(C(=O)Nc2ccc(CC(=O)NCc3ccc(OC(C)C)cc3)cc2)SCCO1", "Potency": "inconclusive [activator, partial curve]"},
      {"smiles": "CSc1nsc(NC(=O)Cc2ccccc2)n1", "Potency": "inconclusive [activator, partial curve, poor fit]"},
      {"smiles": "Cc1cccnc1NC(=O)/C=C/c1ccc2c(c1)OCO2", "Potency": "inconclusive [activator, partial curve, poor fit]"},
      {"smiles": "CC(C)(C)c1ccc(-c2n[nH]c(=S)n2Cc2ccccc2)cc1", "Potency": "inactive"},
      {"smiles": "O=C(c1ccco1)N1CCN(Cc2cccc(C(F)(F)F)c2)CC1", "Potency": "inconclusive [activator, single point]"},
      {"smiles": "CC(=O)c1cccc(N2C(=NC(=O)C3CCCCC3)SC3CS(=O)(=O)CC32)c1", "note": "(stereo not given)", "Potency": "inactive"},
      {"smiles": "CC(=O)c1c(C)[nH]c(C(=O)OCc2cccc(C)c2)c1C", "Potency": "inconclusive [activator, partial curve, poor fit]"},
      {"smiles": "O=C(Nc1cccc(Cl)c1)Nc1cccc(C(=O)O)c1", "Potency": "inactive"},
      {"smiles": "CCCCn1c(C23CC4CC(CC(C4)C2)C3)n[nH]c1=S", "Potency": "inactive"},
      {"smiles": "CN(C)c1ccc(NC(=O)c2cccc(N3C(=O)C4C5C=CC(C5)C4C3=O)c2)cc1", "note": "(stereo not given)", "Potency": "inconclusive [activator, full curve, poor fit]"},
      {"smiles": "COc1ccccc1CCCNC(=O)C1CCC(=O)N(Cc2ccccc2F)C1", "note": "(stereo not given)", "Potency": "inconclusive [activator, partial curve, poor fit]"},
      {"smiles": "Cc1nn(C(=O)c2cc3sccc3[nH]2)c(C)c1C", "Potency": "inconclusive [activator, partial curve, poor fit]"},
      {"smiles": "CN(C)c1ccc(/C=N/NC(=O)c2ccc(CN3C(=O)c4cccc5cccc3c45)cc2)cc1", "Potency": "inconclusive [activator, partial curve, poor fit]"},
      {"smiles": "Cc1ccc(-c2c(C)sc(=NC(=O)c3ccco3)n2C)cc1", "Potency": "inconclusive [activator, partial curve, poor fit]"},
      {"smiles": "Cc1csc(NC(=O)c2cc3ccccc3o2)n1", "Potency": "inconclusive [activator, partial curve, poor fit]"}
    ]}
  ]
}
